Assay results from PubChem BioAssay AID1508624 (National Center for Advancing Translational Sciences (NCATS), 2021).
The campaign covered roughly 48,000 compounds. About 120 (0.25%) were called active. About 4% were inconclusive and are not listed. Calls come from the whole dose curve; as a rule, active = well fitted activation curve with a large enough effect; inconclusive = small, poorly fitted or top-dose-only effect, or another doubt; inactive = no such curve, though single readings can be large or run the other way. This is one part of the list.

experiment: Primary qHTS for Identification of Small Molecule Activators of Huntingtin-Antisense Promoter Activity; conditions: HEK293 HTT-AS promoter firefly luciferase reporter, 24 h; series mostly up to 57.5 µM; activity change, positive = activation: at the top concentration; note: nearly all actives have a fitted effect of over 55% in size
In short: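 HEK293 luciferase promoter-reporter cells (2,500/well) plated 24 h, then compounds added at up to 57.5 uM final for 24 h at 37 °C. Firefly luminescence by Dual-Glo, normalized to vehicle (0%) and zero RLU (-100%).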

Activity change, positive = activation, inactive:
CCc1cccc(NC(=O)CCS(=O)(=O)c2ccc3nc(C)sc3c2)c1 -14.8%
CCC(=O)N1CCc2cc(Br)cc(S(=O)(=O)CCC(=O)NCCc3ccccc3)c21 13.6%
CCc1ccccc1NC(=O)Cn1cc2c(n1)CCC(C)C2 (stereo not drawn) -7.51%
O=c1cc(-c2ccccc2)c2ccc3c(c2o1)CN(Cc1ccccc1)CO3 -20.8%
C/C=C/c1ccc(O)c(OC)c1 -7.64%
CCc1ccc(NS(=O)(=O)c2ccc3[nH]cc(C(=O)N(C)Cc4ccco4)c(=O)c3c2)cc1 -9.94%
CC(C)CN(CCNC(=O)c1cn(C)c2ccc(S(=O)(=O)N3CCCC3)cc2c1=O)CC(C)C 11.7% [at 11.5 µM, percent change from vehicle, -100% = no light]
CCCN(C(=O)CCNC(=O)Cn1cnc2ccccc2c1=O)c1cccc(C)c1 -5.64%
O=C(CCOc1ccccc1)N(Cc1cccnc1)c1nc2ccc(F)cc2s1 -3.04%
CCOC(=O)c1c(NC(=O)c2ccc(OC)c(OC)c2)sc2c1CCCCC2 -2.12% [at 11.5 µM, percent change from vehicle, -100% = no light]
O=C(Nc1ccc2oc(-c3ccc(Cl)cc3)nc2c1)c1ccc2ccccc2c1 16.2%
CCN(CC)c1cc(C)c2cc(NC(=O)c3ccc(F)cc3Cl)ccc2n1 -23.3%
CCN(C(=O)c1cc2c(=O)oc3ccc(C)cc3c2s1)c1ccccc1F -7.11%
Cn1c(=O)oc2cc(S(=O)(=O)N3CCC(C(=O)N4CCN(c5ccc(Cl)cc5)CC4)CC3)ccc21 -29.6%
CCOc1ccccc1NC(c1nnc(-c2ccccc2)o1)c1ccc(F)cc1Cl (stereo not drawn) -22.9%
Cc1cccc(NS(=O)(=O)c2ccc(NC(=O)N3CCCC3)cc2)c1 -18.2%
CCOc1ccc(-c2oc3cc(Cl)ccc3c(=O)c2O)cc1OC 7.67%
CCN(CC)CCCN(c1ccccc1)C1Cc2ccccc2C1 -13.4%
Cc1ccccc1CNC(=O)Nc1ccc2c(c1)N(C)C(=O)c1ccccc1S2 -52.8%
COc1ccc(C2CC(=O)N(Cc3ccccc3)c3c2c(C)nn3-c2nc(C)cc(C)n2)c(OC)c1 (stereo not drawn) -15.9%
Cc1cn2c(=O)c(S(=O)(=O)NCc3ccccc3Cl)c(C)nc2s1 -8.08%
Cc1cc(C)n(CCc2nc3c4ccccc4nc(N4CCN(c5ccc(F)cc5)CC4)n3n2)n1 -12.4%
CCN(C(=O)CSc1nc2ccccc2n1CC(=O)Nc1ccc(F)cc1F)c1ccccc1 -24.4%
COc1ccc(-c2ccc(CCC(=O)O)n2-c2ccc(Cl)cc2C)cc1 8.18%
CCN(C(=O)CSc1nc2n[nH]c(C)c2c(=N)n1-c1cccc(OC)c1)c1cccc(C)c1 -48.4%
CCOC(=O)c1cccc(NC(=O)CCc2c(C)nn(-c3ccc(N4CCOCC4)nn3)c2C)c1 19.1%
CCc1ccc(-n2nc(CO)c(C(=O)NCc3ccccc3OC)n2)cc1 1.37%
COc1ccc(C2Oc3nc(SC)nnc3-c3ccccc3N2C(C)=O)cc1 (stereo not drawn) -13.7%
COCCCn1c(=O)c2sccc2n2c(CCCC(=O)NCc3ccc(F)cc3)nnc12 -2.6%
Cc1ccc2[nH]c3c(=O)n(CC(=O)NCCc4ccc(Cl)cc4)ncc3c2c1 -5.45%
COc1ccc(NC(=O)C2CCN(c3cnccn3)CC2)cc1Cl -20.3%
CCn1cc(S(=O)(=O)c2cccc(C)c2)c(=O)c2cc(F)c(N3CCN(c4ccccc4)CC3)cc21 -2.47%
CCC(C)NC(=O)c1sc2ncccc2c1-n1c(C)ccc1C (stereo not drawn) -19.5%
CCOC(=O)c1ccc2[nH]c(CSc3nnc(-c4cccc(F)c4)n3C)cc(=O)c2c1 -6.98%
Cc1ccc(-n2nc(C(=O)N3CCN(c4cccc(C(F)(F)F)c4)CC3)c3c4ccccc4n(C)c3c2=O)cc1 5.36%
Cc1cccc(NC(=O)COc2cccc3c(=O)n(C)ccc23)c1C -32.5%
CCOc1cc(C2c3c(oc4ccccc4c3=O)C(=O)N2c2ccccn2)ccc1O (stereo not drawn) -11%
Cc1ccc(C)c(-c2[nH]c3c(c2-c2c(-n4cccc4)n(C)c(=O)n(C)c2=O)c(=O)n(C)c(=O)n3C)c1 -21.2%
COc1ccc(OC)c(NC(=O)c2cc(=O)c3c(C)cc(C)cc3o2)c1 1.28% [at 11.5 µM, percent change from vehicle, -100% = no light]
CCOC(=O)c1c(NC(=O)c2cc(Cl)ccc2Cl)sc2c1CCCC2 -6.2%
Cc1ccc(CNc2cc(C)nc3nc(-c4cccc(C)c4)nn23)cc1 5.39%
CN(C(=O)CSc1nc2ccc(NC(=O)COc3ccccc3)cc2s1)c1ccccc1 -42.3%
Cc1cccn2c(=O)c3cc(C(=O)Nc4ccc(Cl)c(Cl)c4)sc3nc12 -4.71%
Cc1ccc(Nc2ccc(N3CCN(C(=O)c4ccc([N+](=O)[O-])cc4)CC3)nn2)cc1 -8.07%
Cn1c(SCc2ccc(Br)cc2)nc2c([nH]c3ccccc32)c1=O -19.3%
Cc1ccc(S(=O)(=O)NCCc2csc(-c3cccc(F)c3)n2)cc1 -30.1%
CCOC(=O)c1cccc(NS(=O)(=O)c2cc3c(cc2C)NC(=O)CO3)c1 -21.3%
O=C(c1ccc(Nc2nc3ccccc3n3nnnc23)cc1)N1CCN(c2cccc(C(F)(F)F)c2)CC1 2.75%
Cc1ccc(NC(=O)CN2C(=O)CC(C)Sc3ccccc32)c(C)c1 (stereo not drawn) -18.8%
Cc1ccc(C)c(NS(=O)(=O)c2cc3c4c(c2)C(C)C(=O)N4CCC3)c1 (stereo not drawn) -15.2%
CCNC(=O)Cn1nc(C)n2c(cc3c(OC)cccc32)c1=O -0.929%
Cc1ccc(NC(=O)C2CCN(c3nnc(C)c4c(C)n(-c5ccccc5)nc34)CC2)cc1Cl -4.71%
Cc1c(Cl)cccc1-n1ncc(C(=O)N2CCOCC2)c1C1CCN(C(=O)OC(C)(C)C)CC1 0%
Cc1cc(C)n(C(C)CC(=O)NCc2ccc(Cl)cc2)n1 (stereo not drawn) -11.4%
Cc1ccc(OCC(=O)OCc2cc(=O)n3nc(C4CC4)sc3n2)cc1 -17%
CCc1ccccc1NC(=O)CC1Sc2ccc(C(F)(F)F)cc2NC1=O (stereo not drawn) -13.1%
CCCCSc1nnc2c(n1)OC(C)N(C(C)=O)c1ccccc1-2 (stereo not drawn) 10.4% [at 11.5 µM, percent change from vehicle, -100% = no light]
COc1ccc(CCNC(=O)C2COc3ccccc3C2)cc1OC (stereo not drawn) 14.5%
COc1ccc(CCNC(=O)Cc2c(C)c3cc4c(C)coc4c(C)c3oc2=O)cc1 -15.8%
Cn1c(Oc2ccc(Cl)cc2)nc2c1c(=O)n(Cc1ccc(F)cc1)c(=O)n2C -3.44%
COc1ccc(C(=O)NC(c2ccc(Cl)cc2)c2cc(Cl)c3cccnc3c2O)cc1 (stereo not drawn) -58.9%
O=C(NCCc1ccccc1)c1ccc2c(c1)N(Cc1ccc(F)cc1)C(=O)c1ccccc1S2 -9.74%
CC(=O)C1=C(O)C=C2Oc3c(C(C)=O)c(O)c(C)c(O)c3C2(C)C1=O (stereo not drawn) 5.48%
Cc1cc(C)cc(NC(=O)CCC(=O)N2CCSc3ccccc32)c1 -31.1%
CCCCN(CC)C(=O)c1cc2c(=O)n3cccc(C)c3nc2s1 12.2%
COc1cc(Cl)c(C)cc1NC(=O)c1cnc(N2CCOCC2)c2ccccc12 -8.89%
Cc1cc(Nc2nc(N[C@@H](C)c3ncc(F)cn3)ncc2Cl)n[nH]1 -36.2%
COc1ccc2c(CNCc3cccs3)c(C(=O)O)n(Cc3ccccc3F)c2c1 -18.3%
COc1ccc(CC(=O)N2CCc3cc(OC)c(OC)cc3C2COc2ccc(F)cc2)cc1OC (stereo not drawn) -16.7%
O=C(NCc1ccccc1)c1ccc2oc(=O)n(Cc3ccccc3)c2c1 -26.8%
CN(C)c1ccc(NC(=O)CSC2=Nc3ccccc3C3=NC(CCC(=O)NCc4cccs4)C(=O)N23)cc1 (stereo not drawn) -32.8%
Cc1ccc(C(=O)C(C)CN2CCCCC2)cc1 (stereo not drawn) -9.63%
Cn1c(SCC(=O)Nc2nc3ccccc3s2)ncc(C(=O)Nc2ccc(F)cc2)c1=O 8.1%
COc1cccc(C(=O)Nc2cccc(C(=O)OCc3cc(=O)n4c(C)csc4n3)c2)c1 -11.4%
NS(=O)(=O)c1ccc2nc(NC(=O)COc3ccc(Cl)cc3Cl)sc2c1 -15.7%
COCCNC(=O)c1ccc2c(c1)N=C(C)c1cc(C)ccc1S2 -31.8%
CCOC(=O)COc1ccc(C)cc1C(=O)c1ccn2nc(-c3ccc(F)cc3)cc2n1 -1.29%
COCCCNC(=O)C1CCN(c2cc(C)nc3c(-c4ccc(Cl)cc4)c(C)nn23)CC1 -17%
CCN(CC)CCCNC(=O)c1ccc2c(Cl)c3c(nc2c1)CCCC3 -12.8%
CCOC(=O)Cn1c(=O)n(-c2ccccc2OC)c2nc(-c3ccc(C(C)C)cc3)nc(C(N)=O)c21 -16.9%
CC(C)CC1Nc2ccc(C(=O)NCCCOC(C)C)cc2NC1=O (stereo not drawn) -18.8%
CCc1nn2c(=O)cc(COC(=O)C(CC)c3ccccc3)nc2s1 (stereo not drawn) -5.72%
CCOC(=O)c1c(Oc2ccc(C(C)=O)cc2)nnc(-c2ccccc2)c1-c1ccccc1 -27.1%
CCCNC(=O)CSc1nc(-c2ccc(OC)cc2)cc(C(F)(F)F)n1 -9.41%
COc1ccccc1N1CCN(CC(O)COc2cc(OC)c(OC)c(OC)c2)CC1 (stereo not drawn) -6.65%
O=C(CC1N=C2c3ccccc3N=C(SCC(=O)Nc3ccc(F)cc3)N2C1=O)NCc1cccs1 (stereo not drawn) -6.27%
CNCC[C@@H](Oc1ccccc1C)c1ccccc1 -12.5%
CC1=Nc2cc(C(=O)NCCc3ccc(Cl)cc3)ccc2Sc2c(C)ccc(C)c21 -42.1%
CCOC(=O)CC(=O)CSc1nc2ccccc2c(=O)n1CCc1ccc(S(N)(=O)=O)cc1 -40.6%
CC1CCCCN1CCCNC(=O)c1cc(Sc2ccc(Cl)cc2)nc2ccccc12 (stereo not drawn) -14.1%
CC(=O)Nc1ccc(NC(=O)CCS(=O)(=O)c2ccc3c(c2)CC(=O)N3C)cc1 -17.4%
COc1ccccc1CNC(=O)c1oc2ccc3c(c2c1C)C(=O)CC(C)(C)O3 22.7%
CCOc1ccc(-n2nc3ccc(NC(=O)c4ccc(-c5cccc(Cl)c5)o4)cc3n2)cc1 -67.2%
